Values marked as one replicate rest on one cluster of the flow cell; about a third of the high ones do not repeat.
tested on: ATP; assay: switch fluorescence ratio, 500 uM ATP over buffer (Cy3 cluster intensity, sum of 5 cycles each) (fold (ratio)); higher = stronger signal-on switching upon ATP binding; sequences stand for … in TCGTCGGCAGCGTCAGATGTGTATAAGAGACAGTTTTTTTTTTTTTTTTTTTTTTTTT…TC; settings: aptamer strand: ATP DNA aptamer (quencher-CACCTGGGGGAGTATTGCGGAGGAAGG + anchor), 100 nM annealed; ATP concentration: 500 uM; one replicate
Outline: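 After annealing to 100 nM quencher-labelled ATP aptamer, Cy3-labelled switching-strand clusters on a modified Illumina MiSeq flow-cell were imaged in selection buffer. A second image followed after 15 min with 500 uM ATP at 22 °C, and five such buffer/ATP cycles were done, each separated by NaOH stripping and re-annealing. The fluorescence ratio, averaged per switch-domain sequence, is summed target-cycle over summed buffer-cycle Cy3 intensity per cluster, with clusters outside 100-1000 RFU excluded.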
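Also: ATP exposure 15 min at 22 °C before imaging.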

Sequence	switch fluorescence ratio
TCGTTCAATG	0.952
TCGTTCAGCC	0.982
TCGTTCGAAC	0.95
TCGTTCTATT	1.04
TCGTTCTTAT	0.97
TCGTTGAGTA	0.951
TCGTTGGAAT	1.04
TCGTTGTG	0.985
TCGTTTAATA	1
TCGTTTCTGT	0.983
TCGTTTTGGC	1.13
TCTAAATATG	0.994
TCTAACGGCG	1
TCTAAGCGCC	1.02
TCTAATTCCA	0.941
TCTAATTTAA	0.981
TCTACCCGAG	1.02
TCTACCGGAC	1.79
TCTACTAGCT	1.02
TCTACTGTCT	0.991
TCTACTTCCT	1.51
TCTAGATTTT	1.03
TCTAGCAAAC	3.4
TCTAGCTAGT	0.981
TCTAGCTTAT	0.99

Sequence	switch fluorescence ratio
TCTAGCTTTG	1.06
TCTAGGAGTG	0.969
TCTAGGGAGC	0.89
TCTAGGGTG	1.61
TCTAGTACGA	1.1
TCTAGTTTTT	1.01
TCTATACGAC	1.28
TCTATATG	1.03
TCTATATTCG	1
TCTATCCTAG	0.961
TCTATCTGCT	1.02
TCTATGCTGG	1
TCTATGTGCA	1.01
TCTATGTGCT	0.967
TCTATGTGTA	1.03
TCTATTCCGT	0.971
TCTCAGATGG	0.993
TCTCAGGCGT	1.08
TCTCATAGGA	0.98
TCTCATCAAT	1.46
TCTCATGTGT	1.05
TCTCATTGTT	0.968
TCTCCAGCCT	1.56
TCTCCCGCCT	1.47
TCTCCGGGGG	1.04

Sequence	switch fluorescence ratio
TCTCCGTATT	4.78
TCTCCTAACT	1.08
TCTCCTTGA	1
TCTCGAATTG	0.994
TCTCGGCGG	0.998
TCTCGGTGGT	1.06
TCTCGGTGTT	1.25
TCTCTACCTT	1.15
TCTCTATTAT	1.03
TCTCTCCTT	1
TCTCTGCGGG	1.05
TCTCTGTAAT	5.74
TCTCTTGTAA	1.02
TCTCTTTCTT	1.05
TCTCTTTGAG	1.03
TCTGAAACAC	1.18
TCTGAAATTG	0.971
TCTGAACCAA	1.12
TCTGAATACG	1.74
TCTGAATGTT	0.974
TCTGAGCGGT	1
TCTGAGGATA	1.08
TCTGATAACG	1.03
TCTGATACCG	0.997
TCTGATATTG	1.03

Sequence	switch fluorescence ratio
TCTGATTAAT	1.02
TCTGATTCGG	0.978
TCTGCAGCCA	2.44
TCTGCGAAAG	0.993
TCTGCGTGGG	1.05
TCTGCTGGTG	1.07
TCTGCTTCGT	1.03
TCTGGAGGGA	2.23
TCTGGTCAGA	0.996
TCTGGTCTGT	1.01
TCTGTACG	0.985
TCTGTCAT	0.996
TCTGTGAGGA	1.02
TCTGTGCACC	1.02
TCTGTGTCGT	1.03
TCTGTTCGGT	0.954
TCTGTTGAGC	0.982
TCTTAAAGAG	1.01
TCTTAACGAA	0.991
TCTTAAGCAG	1.01
TCTTACAGAC	1.58
TCTTACGCCT	1.01
TCTTAGGCGA	1.03
TCTTCAGTAA	1.26
TCTTGCACGT	1.03
